Experimental data as given in the supplement of paper PMC3334620.
In all, about 33,000 sequences were measured (“E-score (-0.5 to 0.5)”: median about -0.012, highest 2% from about 0.29 on). The list shows a part of the results.

The sequences below were run against T1, Ybr033w (UniProt P38073) (assay: PBM E-score (8-mer binding enrichment) (E-score (-0.5 to 0.5)); higher = stronger / more preferred TF binding; most listed sequences are background and not binding sites). Details: protein concentration: 200 nM; construct: GST-full length.
T1 sequence: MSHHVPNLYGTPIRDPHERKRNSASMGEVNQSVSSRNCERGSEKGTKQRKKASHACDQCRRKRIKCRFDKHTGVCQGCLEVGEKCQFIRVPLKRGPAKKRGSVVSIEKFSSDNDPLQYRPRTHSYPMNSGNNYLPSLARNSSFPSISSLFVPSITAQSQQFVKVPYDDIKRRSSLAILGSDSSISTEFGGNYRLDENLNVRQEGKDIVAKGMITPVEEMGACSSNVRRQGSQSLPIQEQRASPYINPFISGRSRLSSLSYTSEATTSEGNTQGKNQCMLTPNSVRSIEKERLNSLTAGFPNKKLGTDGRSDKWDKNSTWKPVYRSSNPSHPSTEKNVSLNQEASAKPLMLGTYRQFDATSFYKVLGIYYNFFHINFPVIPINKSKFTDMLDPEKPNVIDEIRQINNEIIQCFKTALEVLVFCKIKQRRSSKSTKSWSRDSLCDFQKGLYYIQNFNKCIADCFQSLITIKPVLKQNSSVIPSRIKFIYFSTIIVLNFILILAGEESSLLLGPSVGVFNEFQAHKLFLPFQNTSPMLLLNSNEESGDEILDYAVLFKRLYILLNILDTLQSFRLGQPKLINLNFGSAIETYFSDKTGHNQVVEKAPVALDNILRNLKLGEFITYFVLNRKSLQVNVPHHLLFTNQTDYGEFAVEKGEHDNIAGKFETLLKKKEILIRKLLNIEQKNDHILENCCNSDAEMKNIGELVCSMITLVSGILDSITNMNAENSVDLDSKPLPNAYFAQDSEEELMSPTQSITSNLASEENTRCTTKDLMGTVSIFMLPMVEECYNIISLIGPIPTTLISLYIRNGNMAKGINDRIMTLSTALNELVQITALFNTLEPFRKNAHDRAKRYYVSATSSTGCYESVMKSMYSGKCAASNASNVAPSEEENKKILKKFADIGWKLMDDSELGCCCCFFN
Outline: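 Bound GST-tagged yeast transcription factors, applied at about 100-200 nM to double-stranded universal all-10-mer Agilent arrays, were detected with fluorescent anti-GST. Scans were normalised with masliner. A modified Wilcoxon-Mann-Whitney statistic, the E-score, was assigned to each ungapped eight-base word pooled with its reverse complement by the Universal PBM Analysis Suite.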

Row | Sequence | PBM E-score
1 | CTTACGCC | -0.0386
2 | AGGAATCC | -0.0666
3 | CCAGTTCG | -0.123
4 | CAGGCCCA | -0.268
5 | CCTGCGCA | -0.185
6 | GCCTAAAA | 0.0509
7 | ATCGAAAC | 0.0901
8 | GTACCAAC | 0.043
9 | ACGCTGAC | -0.00817
10 | CCGTCCTA | -0.117
11 | ACAGCTAT | 0.0739
12 | ACGCGTTG | -0.0239
13 | CAGTGACG | -0.0112
14 | GCTGTTAA | 0.0854
15 | CGTGTGAG | -0.225
16 | CATCGACC | -0.0962
17 | ACGGCACT | -0.0495
18 | AAAACTCA | 0.216
19 | GAATGATA | 0.232
20 | AAGCAATT | 0.223
21 | AGATGTGA | 0.183
22 | GCATTTTA | 0.197
23 | TATGAAGA | 0.193
24 | CTCCGTTC | -0.0235
25 | TAGCATCA | 0.176

Row | Sequence | PBM E-score
26 | TCCCAAAA | 0.114
27 | GCATCAGC | -0.0788
28 | AATCTAGC | -0.0418
29 | CACAGACC | -0.0503
30 | CAAGCAGG | -0.111
31 | AATCTGAA | 0.135
32 | ACGGCCAA | 0.082
33 | AGCAACTC | 0.0484
34 | CGTCTCGC | -0.158
35 | TCATAACA | 0.23
36 | CCTTACGA | -0.256
37 | ATCTCTAA | 0.102
38 | AGAACCCG | -0.157
39 | TAAAATTA | 0.288
40 | CACATAGA | -0.00674
41 | CACTCTCA | -0.123
42 | GAAATTAA | 0.294
43 | GGCGTGGA | -0.271
44 | ACAGATCA | 0.107
45 | ATACACGA | 0.0457
46 | AAGGTCCT | -0.196
47 | AGACAGGC | -0.107
48 | CATACATA | 0.251
49 | AATCGAGT | -0.0355
50 | CGATACCC | -0.272

Row | Sequence | PBM E-score
51 | AATAACGA | 0.174
52 | AGTGTTCG | 0.0756
53 | AATTGAAT | 0.217
54 | CCACCACC | -0.0273
55 | ATCCGCGG | 0.096
56 | CGTGCACG | -0.186
57 | GTGACCCA | -0.14
58 | CTACCACC | -0.252
59 | ATAATAGA | 0.223
60 | GATGTTTA | 0.14
61 | CGACCACC | -0.216
62 | ACTGGTCG | -0.237
63 | GACAGCAA | 0.0664
64 | CGGTAAAG | 0.0303
65 | GATCGCAC | -0.0367
66 | ACTCAAGC | 0.00745
67 | ACGATCTA | -0.0695
68 | CTGGACCC | -0.366
69 | CCCTGATA | -0.0965
70 | GAAGAGTC | -0.0956
71 | ACGGATGG | 0.0259
72 | CATTGCCC | -0.242
73 | ATGTTAAA | 0.289
74 | AGTAATCC | 0.155
75 | AGGGCGAG | -0.241

Row | Sequence | PBM E-score
76 | GCCTCATA | -0.134
77 | ACGAGGGC | -0.188
78 | ACCTCTTA | 0.0989
79 | AAAGGCTC | -0.114
80 | TCTCACAA | 0.14
81 | CTGATTCA | 0.131
82 | GACTATCA | 0.0235
83 | ATCAAAAC | 0.129
84 | CGTCGATA | -0.0588
85 | CAGTTGGA | 0.0551
86 | ATCAGACC | -0.0685
87 | GGAAGTCC | -0.0957
88 | GATGTAGC | -0.16
89 | AATGAGCT | 0.11
90 | ATCGCAAC | 0.097
91 | AATATGCA | 0.0723
92 | GATCTCCA | -0.0356
93 | ACTCTTAG | -0.0847
94 | GAACCAAC | 0.145
95 | GATATCGA | 0.151
96 | ATCCGCCA | 0.0644
97 | ACGTTCAT | -0.0796
98 | GGGCCAGA | -0.312
99 | GACACCCA | -0.057
100 | AAGAATCT | 0.0556

Row | Sequence | PBM E-score
101 | GGCTTCCC | -0.281
102 | AGGTCGAT | 0.0545
103 | GATACGAC | 0.0451
104 | AGTGATAC | 0.0374
105 | ATGTCTAA | 0.182
106 | GAACAGGA | -0.0725
107 | CAAGTTGC | 0.0158
108 | CCTCCACA | -0.0953
109 | GTGCCTTA | -0.104
110 | GTTTAACA | 0.0135
111 | AGTACCTC | -0.201
112 | ACGTTAGA | -0.105
113 | CAGACGAC | -0.228
114 | CAAACGCC | -0.0492
115 | AAGTCACA | 0.0641
116 | GGTTCCCA | -0.186
117 | GGAATGAC | -0.16
118 | CGCCGTTA | -0.00897
119 | AAATCAGT | -0.00051
120 | ATTGGAGC | 0.0711
121 | ATAACCAC | 0.0831
122 | GTCACGAC | -0.168
123 | CCCAACAG | -0.0625
124 | ACCGACTA | -0.283
125 | AGCTGCAA | -0.16

Row | Sequence | PBM E-score
126 | GGGTGGAC | -0.179
127 | GACCCCGA | -0.257
128 | CGATTTGA | -0.0188
129 | GAACTCCC | -0.0347
130 | ACTTTATC | 0.277
131 | GGAGCTTA | -0.132
132 | GGGCCTCA | -0.254
133 | CCGAGCGA | -0.0301
134 | CAAATGCC | 0.00737
135 | AAGACCCG | -0.0814
136 | AATAGGCT | 0.0809
137 | GGGATAAC | 0.00039
138 | CTAATTGC | 0.106
139 | CAGCGCCC | -0.124
140 | GGGTCTCA | -0.282
141 | GTCGGCAA | -0.158
142 | CCTGTTGC | -0.0897
143 | AAGCCTCA | -0.0877
144 | TCTCCTAA | 0.0912
145 | AACAGCGC | -0.0583
146 | ACAACTAG | -0.0539
147 | GGTTCCAA | 0.124
148 | ACGTAAAC | -0.171
149 | TACTTCGA | 0.188
150 | AAACCGTC | 0.0244

Row | Sequence | PBM E-score
151 | AATGCTAT | 0.164
152 | GGGCTAGA | -0.109
153 | ACTCCTCC | -0.182
154 | AGGCATGA | -0.148
155 | TCGAAAAA | 0.27
156 | GATGATTA | 0.0403
157 | CGTCCGCA | -0.242
158 | ACGTTTCC | -0.0963
159 | CGCTCCAA | -0.171
160 | CGGAGTTA | -0.127
161 | GTTCTAAA | 0.0663
162 | AACACTTG | 0.0758
163 | GCCTACAA | -0.0334
164 | CCCCGAGA | -0.228
165 | TCGAGGAA | -0.00644
166 | ACTGCACG | -0.0718
167 | CGCTCGTC | -0.0709
168 | AATGAGCC | -0.159
169 | AAATGTCT | 0.172
170 | GTCAATCA | 0.108
171 | CCAAGATC | -0.012
172 | ATCTTCCC | 0.121
173 | AACCGATG | 0.0128
174 | CGCGTCCG | -0.114
175 | ACGATGAC | -0.106

Row | Sequence | PBM E-score
176 | GCCCGACA | 0.0799
177 | AACGGTGG | -0.0934
178 | CATAAGAG | 0.102
179 | AGAAGCTC | -0.0933
180 | GGAGTGCC | -0.165
181 | CATGCAGC | -0.173
182 | AGAGAGGG | -0.233
183 | AAAGCTGC | -0.0518
184 | ATGCCTCG | -0.0626
185 | ACCGGGCA | -0.21
186 | CCATATAG | 0.0422
187 | TAGGTGGA | 0.103
188 | GGATCATA | 0.123
189 | AAATATAC | 0.312
190 | GTTCTCCA | 0.0715
191 | AACTAGTT | -0.0643
192 | CGTATGGA | 0.204
193 | CGACCAAA | 0.0922
194 | GGCTAACA | 0.0488
195 | ACTCGTAC | 0.0956
196 | ATTAACTA | 0.181
197 | CCAACTGG | -0.0443
198 | ATACCGAC | -0.155
199 | ATTAATGG | 0.289
200 | ATATACCA | 0.0894

Row | Sequence | PBM E-score
201 | GCTGAGTA | -0.0944
202 | CTAAAAGA | 0.0548
203 | GCTTATCA | -0.0763
204 | ATCCGATC | 0.159
205 | TATATTGA | 0.275
206 | ACAACATC | 0.117
207 | AATAACGC | 0.0422
208 | CCCCGATA | -0.105
209 | CTCGTGGC | -0.173
210 | GGTGAACC | 0.0582
211 | CCCTTAAG | 0.149
212 | AGTCTATC | -0.0692
213 | AGTTAGAA | 0.0705
214 | CCGGTGTA | -0.148
215 | AACGGCCT | -0.213
216 | CCTAAGTA | 0.197
217 | GAGGAGTA | -0.0624
218 | GCAACGTA | -0.0309
219 | CACACTTA | 0.143
